The source of these data is article PMC4336329 (PLoS ONE, 2015).

Screen size: about 310,000 compounds; about 14,000 (4.5%) showed an effect of 50% or more. Effects have a minus sign here. The list shows a part of the results.
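Also: peak tail current of the secondary pulse compared with the same well before compound.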

The test deals with human ether-à-go-go-related gene (hERG) potassium channel (human, UniProt Q12809). Description: primary screen, population patch clamp on CHO cells stably expressing hERG.
Chain of human ether-à-go-go-related gene (hERG) potassium channel (Q12809 whole entry, looked up): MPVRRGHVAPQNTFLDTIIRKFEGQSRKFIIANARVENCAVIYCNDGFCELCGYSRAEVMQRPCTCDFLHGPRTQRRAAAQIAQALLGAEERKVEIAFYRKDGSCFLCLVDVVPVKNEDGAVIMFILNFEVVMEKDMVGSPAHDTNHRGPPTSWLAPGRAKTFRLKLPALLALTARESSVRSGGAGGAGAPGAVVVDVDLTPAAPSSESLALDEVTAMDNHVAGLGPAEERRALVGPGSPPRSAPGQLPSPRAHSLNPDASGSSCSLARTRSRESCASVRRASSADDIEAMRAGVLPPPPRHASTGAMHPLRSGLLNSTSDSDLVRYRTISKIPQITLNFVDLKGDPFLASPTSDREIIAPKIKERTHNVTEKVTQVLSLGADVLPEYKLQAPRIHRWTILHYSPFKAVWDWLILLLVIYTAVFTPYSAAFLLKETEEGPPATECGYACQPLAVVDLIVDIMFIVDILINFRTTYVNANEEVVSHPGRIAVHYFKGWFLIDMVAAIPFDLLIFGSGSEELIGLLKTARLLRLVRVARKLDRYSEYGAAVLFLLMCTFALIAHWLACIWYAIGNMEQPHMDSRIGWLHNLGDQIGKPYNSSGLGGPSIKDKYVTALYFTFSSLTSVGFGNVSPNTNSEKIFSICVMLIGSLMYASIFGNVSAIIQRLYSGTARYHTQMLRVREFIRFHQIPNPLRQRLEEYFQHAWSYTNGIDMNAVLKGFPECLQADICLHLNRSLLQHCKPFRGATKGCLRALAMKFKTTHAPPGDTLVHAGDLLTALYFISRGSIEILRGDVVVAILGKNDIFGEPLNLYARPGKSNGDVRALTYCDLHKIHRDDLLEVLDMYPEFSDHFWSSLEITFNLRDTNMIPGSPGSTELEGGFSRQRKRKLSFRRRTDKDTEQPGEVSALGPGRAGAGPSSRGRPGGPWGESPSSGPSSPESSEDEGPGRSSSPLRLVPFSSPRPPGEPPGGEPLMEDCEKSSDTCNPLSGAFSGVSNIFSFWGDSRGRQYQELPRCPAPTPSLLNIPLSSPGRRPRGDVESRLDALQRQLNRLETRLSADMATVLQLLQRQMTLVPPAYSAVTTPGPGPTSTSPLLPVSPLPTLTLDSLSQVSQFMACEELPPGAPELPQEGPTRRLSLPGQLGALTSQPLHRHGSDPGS
In the case of `NNc1cc(C(=O)O)ccc1Cl`, the “hERG current change (%, negative = inhibition) at 10uM” value worked out at 2.55%.
Regarding `Cn1cccc1CNC(=O)Nc1ccccc1`, the “hERG current change (%, negative = inhibition) at 10uM” value was determined as 1.33%.
Regarding `CN(C)C1=NC[C@H](Cc2ccccc2)N1CC1CCCCC1`, the “hERG current change (%, negative = inhibition) at 10uM” value is -14.6%.
Turning to `COc1ccc(OC)c(S(=O)(=O)N2CCC(C(=O)NCC3CCCO3)CC2)c1` (centres unmarked), the “hERG current change (%, negative = inhibition) at 10uM” value is -1.42%.
Take `Cc1cc(O)c(C(C)C)cc1NC1=NS(=O)(=O)c2ccccc21`: the “hERG current change (%, negative = inhibition) at 10uM” value is 1.25%.
For `COc1cccc(C2=NO[C@@H]3C(=O)N(c4ccc5c(c4)OCCO5)C(=O)[C@H]23)c1OC` the value was 12.4%; for `O=c1[nH]c(=S)n(-c2ccc(Cl)cc2)c(O)c1C=Nc1ccc(N2CCOCC2)cc1`, 18%.
As to `O=C(CCC(=O)N1CCOc2ccccc21)N1CCN(c2ccccc2)CC1`, the “hERG current change (%, negative = inhibition) at 10uM” value is -70%.
Turning to `OCCn1nc(-c2ccccc2)cc1-c1ccccc1`, the “hERG current change (%, negative = inhibition) at 10uM” value is on record as -1.26%.
Take `COc1ccc(C(=O)N[C@H](C(=O)NCc2ccco2)C(C)C)cc1`: the “hERG current change (%, negative = inhibition) at 10uM” value was 9.15%.
As for `COc1ccc(C(=O)CSc2nnc(CN3CCCCC3)n2-c2ccc(F)cc2)cc1`, the “hERG current change (%, negative = inhibition) at 10uM” value is recorded as -57.7%.
As for `Cc1ccc(CC(=O)NC2CCN(C)CC2)cc1`, the “hERG current change (%, negative = inhibition) at 10uM” value came to 7.64%.
For `O=C(CSCc1ccccc1)N/N=C/c1ccccc1OCc1ccccc1` the value was 4.14%; for `CCC(NS(=O)(=O)c1ccc(C)cc1)C(=O)Nc1ccc(NC(C)=O)cc1` (centres unmarked), -11.6%; for `CCOc1ccccc1Oc1c(C)oc2c(CN3CCN(C)CC3)c(O)ccc2c1=O`, -0.354%.
The same measure for `COc1cc(Sc2ccc(C)cc2)c(OC)cc1N.Cl`: -4.21%.
With `O=C(C1=C[C@H](c2csc3ccccc23)C[C@H](OCc2ccc(CO)cc2)O1)N1CCN(Cc2ccccc2)CC1`, the “hERG current change (%, negative = inhibition) at 10uM” value is on record as 17.4%.
The same measure for `CC(=O)OCCN(CCOC(C)=O)c1c(C)[nH]c(=O)[nH]c1=O`: 4.25%; for `CC(=O)c1ccc2c(c1)C1C(Cl)C(Sc3ccccc3[N+](=O)[O-])CC1C(c1ccccc1[N+](=O)[O-])N2` (centres unmarked): 8.59%; for `COC(=O)c1ccc(NC(=O)COC(=O)CCC2CCCC2)cc1`: 4.16%.
Take `[O-][n+]1c(/C=C/c2ccccc2)ccc2ccccc21`: the “hERG current change (%, negative = inhibition) at 10uM” value was 19.3%.
With `CC/C=C/CC(=O)N[C@@H](c1ccccc1)[C@@H](O)C(=O)O[C@H]1C[C@@]2(O)[C@@H](OC(=O)c3ccccc3)C3[C@](C)(C(=O)[C@H](OC(C)=O)C(=C1C)C2(C)C)[C@@H](O)C[C@H]1OC[C@@]31OC(C)=O` (some centres unmarked), the “hERG current change (%, negative = inhibition) at 10uM” value worked out at 3.73%.
Turning to `CCOc1ccc(C(=O)NCC(=O)N2CCN(c3ccccc3O)CC2)cc1`, the “hERG current change (%, negative = inhibition) at 10uM” value worked out at 3.93%.
With `Cc1ccc(C)n1NC(=O)c1cccs1`, the “hERG current change (%, negative = inhibition) at 10uM” value amounted to 9.98%.
With `Cc1cscn1`, the “hERG current change (%, negative = inhibition) at 10uM” value was 3.15%.
For `CCOc1cc(S(=O)(=O)n2ccc(C)n2)ccc1Br` the value was 4.32%.
The same measure for `COc1c(Cl)cnn(-c2ccccc2)c1=O`: -28.5%.
The same measure for `Cc1ccc(N2CC(C(=O)Nc3nnc(C)s3)CC2=O)cc1` (centres unmarked): -4.86%.
Take `CN1C(=O)c2cccc(N(C)C)c2C1=O`: the “hERG current change (%, negative = inhibition) at 10uM” value turned out to be 1.74%.
The same measure for `N#CC1(Nc2cccc(Br)c2)C(=O)Nc2ccccc21` (centres unmarked): 6.92%; for `O=C1C=C(N2CCCCCC2)C(=O)N1c1ccc(Cl)cc1`: 1.47%.
As to `Cc1nc2ccccc2c(=O)n1CCN1CCOCC1`, the “hERG current change (%, negative = inhibition) at 10uM” value is 4.18%.
The same measure for `COCc1ccc(C(=O)NC2CCSc3ccccc32)cc1` (centres unmarked): -6.95%.
For `CCOc1ccc(CCNC(=O)c2nnn(CC(=O)Nc3ccc(OC)cc3)c2N)cc1OCC` the value was 25%; for `COc1ccc(C(C(=O)NCCC(C)C)N(CCO)C(=O)c2snc(C(N)=O)c2N)cc1` (centres unmarked), -1.26%.
Consider `CCOC(=O)C1CCN(C(=O)C2CCCN2S(=O)(=O)c2ccc(Cl)cc2)CC1` (centres unmarked), for which the “hERG current change (%, negative = inhibition) at 10uM” value was -46.2%.
Take `Cc1nc2ccccn2c1C(=O)N/N=C/c1ccccc1Cl`: the “hERG current change (%, negative = inhibition) at 10uM” value was -2.95%.
For the compound `CN(C)c1ccc(Nc2nc(-c3cccnc3)cs2)cc1`, the “hERG current change (%, negative = inhibition) at 10uM” value is listed as 5.8%.
The same measure for `CCOc1ccc(OCCC(=O)N(CCC(C)C)c2c(N)n(Cc3ccccc3)c(=O)[nH]c2=O)cc1`: 14.4%; for `Nc1nc(-c2ccccc2)c(N=Nc2cccc3ccccc23)s1`: -2.2%; for `O=C(NCCCc1nc2ccccc2[nH]1)c1ccco1`: 16.9%.
`O=[N+]([O-])c1cccc(-c2nn(-c3ccccc3)cc2CO)c1`: the “hERG current change (%, negative = inhibition) at 10uM” value was -23.9%.
The same measure for `C/C(=N\Nc1cc(N2CCOCC2)nc(C)n1)c1cccc([N+](=O)[O-])c1`: -60.4%.
As for `O=C1c2cccc3c([N+](=O)[O-])ccc(c23)C(=O)N1c1ccc(Cl)cn1`, the “hERG current change (%, negative = inhibition) at 10uM” value was 0.201%.
As for `CCn1cc(C(=O)NP(=O)(Nc2ccc(C)cc2)Nc2ccc(C)cc2)c2ccccc21`, the “hERG current change (%, negative = inhibition) at 10uM” value is listed as 20.3%.
For `Cc1cccc(C(=O)Nc2scc(-c3ccc(Br)cc3)c2C(=O)O)c1` the value was 30.4%; for `Cc1ccc(-c2nc(CS(=O)(=O)CC(=O)NC3CCC(C)CC3)c(C)o2)cc1` (centres unmarked), 1.25%.
As for `Cc1ccc(CC(=O)NCCC(=O)O)cc1`, the “hERG current change (%, negative = inhibition) at 10uM” value came to 16.9%.
For `O=C(CCNC(=O)c1ccc([N+](=O)[O-])cc1)Nc1ccccc1N1CCCC1` the value was -34.6%; for `Cc1cccc(NC(=O)CSCC(=O)Nc2ccc(S(=O)(=O)N3CCOCC3)cc2)c1`, -5.21%.
The same measure for `Cc1ccccc1-c1nc(P(=O)(c2ccccc2)c2ccccc2)c(N2CCOCC2)o1`: -19.5%.
The same measure for `CCCCNC(=O)N1CCCC(C(=O)c2cc(C)c(OC)c(C)c2)C1` (centres unmarked): -0.274%; for `COc1cc(-c2nc(CN(C)Cc3nnc(C)o3)c(C)o2)ccc1F`: -8.17%.
With `Cc1onc(-c2ccccc2Cl)c1C(=O)NCC(=O)O`, the “hERG current change (%, negative = inhibition) at 10uM” value is reported as -3.33%.
With `O=C1COc2ccc(-c3n[nH]c(=O)c4ccccc34)cc2N1`, the “hERG current change (%, negative = inhibition) at 10uM” value was -2.91%.
The same measure for `O=c1[nH]ccc2c(O)cccc12`: 20.1%.
